These results are taken from the supplement of paper PMC4967469.

Compound in this assay: NC1(c2ccc(-c3nc4ccn5c(=O)[nH]nc5c4cc3-c3ccccc3)cc2)CCC1 [MK-2206]
Description: Viability of human cancer cell lines after 72 h of drug (GDSC screen). As for the experimental part: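 Human cancer cell lines in 384-well plates, medium with 10% serum, drug for 72 h over a 256-fold dose range (nine 2-fold or five 4-fold steps up to the top dose). Adherent lines were fixed and stained with the nucleic acid dye Syto60, suspension lines read with resazurin; signal relative to control wells, capped at 0 and 100%. One two-parameter sigmoid per drug and line, fitted in a mixed model over all curves with the slope shared within a line.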

The IC50 comes from the fitted curve, where viability falls to half of the control; a limit (>, <) means that the fit lies beyond the doses tested. AUC, from the same fit, is the share of area under the viability curve across the 256-fold dose range; it is 1 without any effect and falls as sensitivity rises. Some results are limits rather than exact numbers.

Take “RERF-LC-MS (lung adenocarcinoma, adherent, top dose 4 µM)”: the AUC worked out at 0.986 and the IC50 (commonly the concentration needed to halve the response being measured) is above 4 µM.
For “RERF-LC-Sq1 (lung squamous cell carcinoma, adherent, top dose 4 µM)”, in that order: 0.858 and above 4 µM.
For “RF-48 (stomach, adherent, top dose 4 µM)”, in that order: 0.932 and above 4 µM.
On to “RH-1 (rhabdomyosarcoma, adherent, top dose 4 µM)”, for which the AUC turned out to be 0.915 and the IC50 was above 4 µM.
Take “RH-18 (rhabdomyosarcoma, adherent, top dose 4 µM)”: the AUC was 0.895 and the IC50 was above 4 µM.
In the same order, the values of RKN (ovary, adherent, top dose 4 µM) are 0.839 and 2.95 µM.
For “RKO (large intestine, adherent, top dose 4 µM)”, the AUC was 0.755 and the IC50 stood at 1.27 µM.
In the same order, the values of “RL (B-cell lymphoma, suspension, top dose 4 µM)” are 0.863 and 2.99 µM.
For “RO82-W-1 (thyroid, adherent, top dose 4 µM)”, in that order: 0.913 and above 4 µM.
For the cell line “ROS-50 (B-cell leukaemia, suspension, top dose 4 µM)”, the AUC is 0.984 and the IC50 was above 4 µM.
For the cell line “RPMI-2650 (head and neck, adherent, top dose 4 µM)”, the AUC came out at 0.876 and the IC50 was above 4 µM.
Consider “RPMI-6666 (Hodgkin lymphoma, suspension, top dose 4 µM)”, for which the AUC was 0.894 and the IC50 was above 4 µM.
In the same order, the values of “RPMI-7951 (melanoma, adherent, top dose 4 µM)” are 0.903 and above 4 µM.
In the same order, the values of “RPMI-8226 (myeloma, suspension, top dose 4 µM)” are 0.84 and 2.25 µM.
For “RPMI-8402 (T-cell lymphoblastic leukaemia, suspension, top dose 4 µM)”, the AUC is 0.679 and the IC50 stood at 0.72 µM.
For “RPMI-8866 (chronic myeloid leukaemia, suspension, top dose 4 µM)”, in that order: 0.837 and 2.41 µM.
In the same order, the values of “RS4-11 (leukaemia, suspension, top dose 4 µM)” are 0.495 and 0.243 µM.
For RT4 (bladder, adherent, top dose 4 µM), in that order: 0.987 and above 4 µM.
With “RVH-421 (melanoma, adherent, top dose 4 µM)”, the AUC was found to be 0.854 and the IC50 is above 4 µM.
Regarding “RXF393 (kidney, adherent, top dose 4 µM)”, the AUC was 0.745 and the IC50 was determined as 1.7 µM.
For “Raji (Burkitt lymphoma, suspension, top dose 4 µM)”, in that order: 0.99 and above 4 µM.
In the same order, the values of “Ramos-2G6-4C10 (Burkitt lymphoma, suspension, top dose 4 µM)” are 0.697 and 0.81 µM.
Consider “SAS (head and neck, adherent, top dose 4 µM)”, for which the AUC amounted to 0.966 and the 50% inhibitory concentration (IC50) was above 4 µM.
For “SAT (head and neck, adherent, top dose 4 µM)”, in that order: 0.753 and 2.07 µM.
For “SBC-1 (small cell lung carcinoma, suspension, top dose 4 µM)”, the AUC is 0.883 and the half-maximal inhibitory concentration (IC50) is above 4 µM.
In the same order, the values of “SBC-3 (small cell lung carcinoma, adherent, top dose 4 µM)” are 0.98 and above 4 µM.
For “SBC-5 (small cell lung carcinoma, adherent, top dose 4 µM)”, the AUC was 0.993 and the IC50 was above 4 µM.
For “SCC90 (head and neck, adherent, top dose 4 µM)”, in that order: 0.844 and above 4 µM.
“SCC-9 (head and neck, adherent, top dose 4 µM)”: the AUC was 0.969 and the IC50 is above 4 µM.
For “SCC-15 (head and neck, adherent, top dose 4 µM)”, the AUC stood at 0.895 and the half-maximal inhibitory concentration (IC50) is above 4 µM.
For “SCC-25 (head and neck, adherent, top dose 4 µM)”, the AUC worked out at 0.84 and the IC50 was 3.29 µM.
For SCH (stomach, adherent, top dose 4 µM), in that order: 0.968 and above 4 µM.
As to SF126 (glioma, adherent, top dose 4 µM), the AUC came out at 0.753 and the IC50 amounted to 1.4 µM.
For SF268 (glioma, adherent, top dose 4 µM), in that order: 0.854 and 3.54 µM.
For SF295 (glioma, adherent, top dose 4 µM), in that order: 0.862 and 3.86 µM.
In the same order, the values of SF539 (glioma, adherent, top dose 4 µM) are 0.912 and above 4 µM.
As to “SH-4 (melanoma, adherent, top dose 4 µM)”, the AUC came out at 0.973 and the IC50 was above 4 µM.
In the same order, the values of “SHP-77 (small cell lung carcinoma, semi-adherent, top dose 4 µM)” are 0.883 and 3.5 µM.
For “SIMA (neuroblastoma, adherent, top dose 4 µM)”, the AUC came to 0.868 and the IC50 is above 4 µM.
Consider SISO (cervix, adherent, top dose 4 µM), for which the AUC was found to be 0.817 and the 50% inhibitory concentration (IC50) was 2.11 µM.
Take “SJRH30 (rhabdomyosarcoma, adherent, top dose 4 µM)”: the AUC turned out to be 0.862 and the IC50 is 3.62 µM.
In the same order, the values of SJSA-1 (bone, adherent, top dose 4 µM) are 0.901 and above 4 µM.
For the cell line “SK-CO-1 (large intestine, adherent, top dose 4 µM)”, the AUC turned out to be 0.904 and the IC50 is above 4 µM.
In the same order, the values of “SK-ES-1 (Ewing sarcoma, semi-adherent, top dose 4 µM)” are 0.824 and 2.58 µM.
Turning to “SK-GT-2 (stomach, adherent, top dose 4 µM)”, the AUC is 0.664 and the half-maximal inhibitory concentration (IC50) turned out to be 0.735 µM.
Consider “SK-GT-4 (oesophagus, adherent, top dose 4 µM)”, for which the AUC was 0.616 and the half-inhibitory concentration (IC50) was found to be 0.565 µM.
In the same order, the values of “SK-HEP-1 (liver, adherent, top dose 4 µM)” are 0.967 and above 4 µM.
With “SK-LMS-1 (soft tissue, adherent, top dose 4 µM)”, the AUC stood at 0.663 and the half-inhibitory concentration (IC50) stood at 0.693 µM.
In the same order, the values of “SK-LU-1 (lung adenocarcinoma, adherent, top dose 4 µM)” are 0.918 and above 4 µM.
In the same order, the values of “SK-MEL-1 (melanoma, suspension, top dose 4 µM)” are 0.993 and above 4 µM.
Take “SK-MEL-2 (melanoma, adherent, top dose 4 µM)”: the AUC amounted to 0.879 and the IC50 is above 4 µM.
In the same order, the values of “SK-MEL-3 (melanoma, adherent, top dose 4 µM)” are 0.936 and above 4 µM.
Turning to “SK-MEL-5 (melanoma, adherent, top dose 4 µM)”, the AUC is 0.856 and the IC50 is above 4 µM.
For the cell line “SK-MEL-31 (melanoma, adherent, top dose 4 µM)”, the AUC stood at 0.871 and the IC50 was above 4 µM.
In the same order, the values of “SK-MES-1 (lung squamous cell carcinoma, adherent, top dose 4 µM)” are 0.902 and above 4 µM.
As to “SK-MG-1 (glioma, adherent, top dose 4 µM)”, the AUC came out at 0.803 and the IC50 is 2.02 µM.
In the case of “SK-MM-2 (myeloma, suspension, top dose 4 µM)”, the AUC came out at 0.875 and the IC50 is above 4 µM.
In the same order, the values of “SK-N-AS (neuroblastoma, adherent, top dose 4 µM)” are 0.938 and above 4 µM.
In the same order, the values of “SK-N-FI (neuroblastoma, adherent, top dose 4 µM)” are 0.93 and above 4 µM.
As to “SK-N-SH (neuroblastoma, adherent, top dose 4 µM)”, the AUC amounted to 0.813 and the IC50 was found to be 2.13 µM.
For “SK-OV-3 (ovary, adherent, top dose 4 µM)”, the AUC came to 0.764 and the IC50 amounted to 1.81 µM.
In the same order, the values of “SK-PN-DW (Ewing sarcoma, adherent, top dose 4 µM)” are 0.758 and 1.44 µM.
Consider “SKG-IIIa (cervix, adherent, top dose 4 µM)”, for which the AUC amounted to 0.832 and the half-maximal inhibitory concentration (IC50) was found to be 3.88 µM.
For “SKM-1 (haematopoietic neoplasm, suspension, top dose 4 µM)”, in that order: 0.705 and 1.01 µM.
For SKN (uterus, adherent, top dose 4 µM), in that order: 0.764 and 1.75 µM.
“SKN-3 (head and neck, adherent, top dose 4 µM)”: the AUC stood at 0.92 and the concentration for half-maximal inhibition (IC50) is above 4 µM.
Take “SLVL (B-cell lymphoma, suspension, top dose 4 µM)”: the AUC was found to be 0.965 and the IC50 was above 4 µM.
For SNB75 (glioma, adherent, top dose 4 µM), in that order: 0.838 and above 4 µM.
